These results are taken from publication PMC10726135.

The other results are listed elsewhere or left out. At the low end of the ranking the order means little. The protein was read in a cell extract, so binding may be indirect.

The experiment has as its target T1, HNF4alpha2 (COS-7 nuclear extract) (UniProt P41235).
T1 sequence: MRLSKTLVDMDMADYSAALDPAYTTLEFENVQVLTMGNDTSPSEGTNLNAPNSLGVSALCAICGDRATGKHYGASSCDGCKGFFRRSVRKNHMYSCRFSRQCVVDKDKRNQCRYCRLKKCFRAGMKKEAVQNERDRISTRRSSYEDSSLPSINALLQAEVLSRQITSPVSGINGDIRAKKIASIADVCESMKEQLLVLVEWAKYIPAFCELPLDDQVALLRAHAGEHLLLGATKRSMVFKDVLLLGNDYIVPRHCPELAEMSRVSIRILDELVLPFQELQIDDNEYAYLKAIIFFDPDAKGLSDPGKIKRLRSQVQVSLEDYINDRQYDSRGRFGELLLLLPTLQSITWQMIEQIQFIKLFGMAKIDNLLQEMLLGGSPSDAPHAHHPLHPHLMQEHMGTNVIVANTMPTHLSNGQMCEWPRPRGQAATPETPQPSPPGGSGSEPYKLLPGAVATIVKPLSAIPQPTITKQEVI
In words: protein-binding microarray. Particulars: COS-7 nuclear extract on double-stranded Agilent 4x180k PBM; binding buffer, salt, pH and temperature not given; high values mean tight binding; double strand, one strand shown; sequences stand for … in …GCCTAGGGAGATTAGAGTATCGGTCGA
As for GGGAGTTGGGGTCCAAAGTCTTTGTTCCTA, the binding signal (log2 normalized intensity) came out at 3.82.

Regarding CCTGGGGCCTTGGGCCACCTGAGACAGTTT, the binding signal (log2 normalized intensity) was -1.03.

On to TGATAAGCAGTGTGGACTTTTTCCTGAGGG, for which the binding signal (log2 normalized intensity) is 1.08.

With AATTCTTAAGCCAAAGTCCAAGTTGGTGAG, the binding signal (log2 normalized intensity) was found to be 3.05.

As for AGCACGATGAATAGGGACGTTCTACTTGTT, the binding signal (log2 normalized intensity) worked out at 0.187.

As to CAAACAATGAGAGGCAACATTCCCAGTTAT, the binding signal (log2 normalized intensity) was -1.11.

Regarding TCAAGTCATAACTGGATGGTGCCTATTTGT, the binding signal (log2 normalized intensity) was found to be 0.992.

In the case of TTTGGACCTGGCCTGCGGGGTCAGGCCGTG, the binding signal (log2 normalized intensity) was 1.95.

As for TGCCATTTATCAGTGATTTCTCTTCCATCT, the binding signal (log2 normalized intensity) stood at 0.463.

Turning to TGCAAGGTTCTCTCTTCTTCCCCTCCTTCA, the binding signal (log2 normalized intensity) was 2.15.

Consider TTGAGAAGCAGGAGCATGGGGGATGGGGCC, for which the binding signal (log2 normalized intensity) was -1.16.

For the sequence CTCCCAGAGGTCGATCTGATCTTAAGTTGT, the binding signal (log2 normalized intensity) amounted to 1.09.

As for TCAAGACCGATTGTGTTTTAGGCAAACATT, the binding signal (log2 normalized intensity) was determined as 0.894.

ACTCAGGATACCTAAGCCCCATGCTGATAA: the binding signal (log2 normalized intensity) is 1.32.

Take ACATTGCAAATCTCTTCTTCCTTTCTATCA: the binding signal (log2 normalized intensity) amounted to 0.334.

Turning to AAGGGGGGTGGGGAGGCAGGTGGCTACATG, the binding signal (log2 normalized intensity) is -0.973.

Take AACTGCAAGGAAATCTGGGAAATGTAGCTT: the binding signal (log2 normalized intensity) was -0.9.

With ACTGAACCCAGGCATACTCAGTTATCAACC, the binding signal (log2 normalized intensity) was -0.997.

Consider ATGGCCGCTCCGCGAGGTGAGCCATTGGCT, for which the binding signal (log2 normalized intensity) was -1.1.

For the sequence GAGCAAAAAGGCCGTTCAAAGGCAGCCTTC, the binding signal (log2 normalized intensity) is -1.21.

As to CCCTATGTGTTTCTTCTGCTTCCCTAGGGA, the binding signal (log2 normalized intensity) is -0.0765.

For the sequence TCCGGAGAACACGGAGTCCTTCTGGGGCTA, the binding signal (log2 normalized intensity) was -1.11.

As for AGAGCATCTGAGTGTCAAAAACAATACCAG, the binding signal (log2 normalized intensity) is -1.14.

On to GGCGACATCAAAGCATTTGGAGATTGCCAC, for which the binding signal (log2 normalized intensity) is -1.03.

GCATTCCACCAAATCTTACCTAAGGAAGTT: the binding signal (log2 normalized intensity) is -0.954.

With TTATCTTGGAACCTCAAGAGGAGAAGAATT, the binding signal (log2 normalized intensity) was -0.919.

For the sequence AGATTGCTCAGAGGCACAGTCTGCTTTCAG, the binding signal (log2 normalized intensity) is -1.18.

Consider TATCTCGTCACCTTTATCGAACCTATTGTT, for which the binding signal (log2 normalized intensity) was 1.33.

For the sequence CTTTGTTTACTTAACCTTTGATCATATGCA, the binding signal (log2 normalized intensity) is 5.18.

Consider TTGGCAATTACCCAACAGACTTTCCCCCTA, for which the binding signal (log2 normalized intensity) was found to be 4.12.

Take AAGCATGTGATCTACTCCCTGTTCTTACAC: the binding signal (log2 normalized intensity) is -0.242.

CTGTCTAATTTTGCACAGCCAGCCTGAGGC: the binding signal (log2 normalized intensity) is -1.06.

Regarding TCACACACACACACACACACACCCCACACA, the binding signal (log2 normalized intensity) is 1.75.

Take CTGTACCCTATGCACCCCACAGTGCTGTTT: the binding signal (log2 normalized intensity) was 1.52.

As to CTTGGTGCCTCTGAGCTAAGATAACCATCA, the binding signal (log2 normalized intensity) is -1.23.

Turning to TAGCTAAGCTTCACTGACATTCCAGCCACT, the binding signal (log2 normalized intensity) is -1.27.

For the sequence AAACAGGGACAGATGTTTGGTTGAGCAAGC, the binding signal (log2 normalized intensity) was -1.1.

In the case of GGTGGGGCCGGGGTGGTGGTTACCGGCAGA, the binding signal (log2 normalized intensity) was -0.0457.

As to GATCGAAAGGACATTGTCCATCACCTGGCT, the binding signal (log2 normalized intensity) was -1.14.

As for GGTCAGACATGGCTGTATGTGACATGGACA, the binding signal (log2 normalized intensity) is 1.49.

Turning to TCGGCTGCCTCTCCAAACAAATTGAGAAAG, the binding signal (log2 normalized intensity) is -0.863.

In the case of TAGAGGGTAAACAGCCTCTAAGCACGGCCA, the binding signal (log2 normalized intensity) was -1.21.

CCAAAGCTACACAGATAAGCCATTCGTAAC: the binding signal (log2 normalized intensity) is -1.18.

On to TGAATTTGGTACCTCCCCCCACACCATTAG, for which the binding signal (log2 normalized intensity) was found to be 5.05.

TTCTGGAGGTGAGAAGCCTGAAATGAGTTT: the binding signal (log2 normalized intensity) is -0.773.

Consider ATAAACAGAAGCAATCACAAGGAATGCCCT, for which the binding signal (log2 normalized intensity) is -1.1.

Take CCCTGCCCTCAGGGAATCCTGCATTATCAG: the binding signal (log2 normalized intensity) was -0.189.

Regarding AAGGGTGAAAAGATAGCTTGAGGCCAGCTC, the binding signal (log2 normalized intensity) was -1.08.

Consider GCCGGAGGGGAGGTTATCTCGGGGCTGGCA, for which the binding signal (log2 normalized intensity) is -1.16.

For AACCACCACTGGGCAATTGGTTTCCGCTAA, the binding signal (log2 normalized intensity) was -1.15.

In the case of AGAAGGCAGCCGATTAACACAAAAAGGCAG, the binding signal (log2 normalized intensity) is -1.15.

Consider CTATGTCCCTGACTGTGTGGCTTGCCTCTC, for which the binding signal (log2 normalized intensity) is -0.58.

Consider CCACTTTGAATCAGGAGAGCATCTGAGTGT, for which the binding signal (log2 normalized intensity) stood at 1.15.

GCTGTAGTGTGTAAGTATGCTCACTGACCT: the binding signal (log2 normalized intensity) turned out to be 3.01.

Regarding CTAAGAGATTTGAATATGTACATGGACTTT, the binding signal (log2 normalized intensity) is 6.19.

With GTGTGCTGAGAGTTGGAAAATGTCGTTTTC, the binding signal (log2 normalized intensity) is 0.716.

On to CTTGGGTATCAGATAGTCCAATGTCCAGAA, for which the binding signal (log2 normalized intensity) was 3.75.

In the case of TTATATCAGAGGAATGTCTGACCAACCTGT, the binding signal (log2 normalized intensity) stood at 0.0786.

With TGTGACCTTTGGAAGGTGGGGGAGGAGACA, the binding signal (log2 normalized intensity) came to 3.03.

As for ACTACTGCTTTAGGCCTCAAGACAAACAAT, the binding signal (log2 normalized intensity) was -1.13.

As for TGCTTGGCCTCTCCACTTGGGTATCAGATA, the binding signal (log2 normalized intensity) is 0.354.

For the sequence GAATAATCCCCTCCTGGACTTTGGTCTCAT, the binding signal (log2 normalized intensity) is 7.15.

For TCTGACCAGGCTGATTTAGCTATTTGACCT, the binding signal (log2 normalized intensity) was 4.02.

As for GAGAGAATGACCCTTGCTTGACCCATTATG, the binding signal (log2 normalized intensity) was determined as 2.36.

With ACCCGTGCTTGGAATGCTATTTGCATTGAC, the binding signal (log2 normalized intensity) was found to be 1.11.

Consider CCCCTGGCCTCACCCTTGTCCCTGAGGCTG, for which the binding signal (log2 normalized intensity) came out at 1.89.

As to AAGTCCACGTGAGAGGGTCGTGATCGATTG, the binding signal (log2 normalized intensity) turned out to be 1.76.

In the case of CAGGAGATGTGTGAAGGACACAGAATGACT, the binding signal (log2 normalized intensity) was -1.28.

Consider CACACTGCAGCAAAACTTTAGGACTTTGAA, for which the binding signal (log2 normalized intensity) was 3.31.

Regarding TCCCCATTCCTAAGTTCCAAAGGCCATCCA, the binding signal (log2 normalized intensity) amounted to 2.83.

For the sequence TAAACAACACAGAACTAGCCAGACCTGTTC, the binding signal (log2 normalized intensity) was -1.15.

Turning to GATCAAGCAGGTGACCTTCGATCACCTCAA, the binding signal (log2 normalized intensity) came to 4.61.

With GAGCAGTGGGAGGTGAGGAAAACGGAGACA, the binding signal (log2 normalized intensity) was -1.11.

TGCCTCCTAAGGCCTCCAGAAGGAATGCAG: the binding signal (log2 normalized intensity) was -1.07.

Consider CCCCCAGTGCACCTTAATAAGCACATTCCT, for which the binding signal (log2 normalized intensity) came to 0.681.

As to AGGAGTACACACCATAAGAGGCTCTAGATC, the binding signal (log2 normalized intensity) is -0.923.

With AGAGCAGTGGAAGACAAATGATAATACTTA, the binding signal (log2 normalized intensity) is -1.08.

As to GGCTGATTGGCAGGCATTCCACACTGCAGG, the binding signal (log2 normalized intensity) is -1.14.

CAAGGAGGCTGAAGAAGTTGCTCAGTGTTC: the binding signal (log2 normalized intensity) came to 0.637.

Take GCAGTTTTTGATCAAGGAGGACTTTGGAAT: the binding signal (log2 normalized intensity) came out at 6.4.

On to ATGCATAGAAGTATGTCTGGGATTTGAAGG, for which the binding signal (log2 normalized intensity) is -0.542.

Regarding GTTACTGTGTTCCTTTTATCTTACATGCCT, the binding signal (log2 normalized intensity) turned out to be 1.29.

With TGCAGAGCTTGCTCTCACCAGCTTCTTCTC, the binding signal (log2 normalized intensity) is -0.996.

For GGGGGAGGGGACTTCGCTGGAGGTGTTAAA, the binding signal (log2 normalized intensity) is -0.864.

Consider TCTGGAATGTGGAGAATGGCAAGAGATAAG, for which the binding signal (log2 normalized intensity) was 0.129.

Turning to CTTATCAGCAGATAAGGGCAGAGAGGCTGC, the binding signal (log2 normalized intensity) is -1.1.

For AAAAGACCAAAAAGGCTAACTTACCCGCTT, the binding signal (log2 normalized intensity) is -1.1.

TGATGCCCTTTGGCCTTTCTAATTATTTAC: the binding signal (log2 normalized intensity) came out at 3.63.

Consider GAGAAGGGTGGGAATTGGGATAGCAAAGGG, for which the binding signal (log2 normalized intensity) is -0.717.

Take CAACTCCAAAGTCCAAAGTCCAGTCTTATC: the binding signal (log2 normalized intensity) was determined as 8.27.

AGCTCTGCAATAGAGCCACATTCTGAGACT: the binding signal (log2 normalized intensity) was -1.09.

In the case of TTCAAAGTTCAGTTTGATTACTTGGCACTT, the binding signal (log2 normalized intensity) is 1.01.

For AGTATGCCACTGGTTAGTTCCAAAGGACAA, the binding signal (log2 normalized intensity) is 1.43.
